Like-named read-outs stand apart in the source and are kept apart here. Results are given in words; binding and its absence hold for the method and conditions named. Binding seen in cells or lysates may run through a third protein. Some binding calls cover weakened binding; strength is not graded here. For some of these results: Tags and fused reporters may be left off the sequences shown.
Assays:
[1] = target: T1, mammalian STE20-like protein kinase 2 (MST2) (human (endogenous in HeLa)) (UniProt Q13188); experiment: co-IP; endogenous proteins from HeLa cell lysates (50 mM Tris-HCl pH 7.5, 0.15 M NaCl, 1 mM EDTA, 1% NP-40), 2 ug antibody and protein G Dynabeads, 2 h at 4 C, immunoblot; cells in some panels treated with siCTRL, siRASSF1A, siMST2 or siXPO6
T1 sequence: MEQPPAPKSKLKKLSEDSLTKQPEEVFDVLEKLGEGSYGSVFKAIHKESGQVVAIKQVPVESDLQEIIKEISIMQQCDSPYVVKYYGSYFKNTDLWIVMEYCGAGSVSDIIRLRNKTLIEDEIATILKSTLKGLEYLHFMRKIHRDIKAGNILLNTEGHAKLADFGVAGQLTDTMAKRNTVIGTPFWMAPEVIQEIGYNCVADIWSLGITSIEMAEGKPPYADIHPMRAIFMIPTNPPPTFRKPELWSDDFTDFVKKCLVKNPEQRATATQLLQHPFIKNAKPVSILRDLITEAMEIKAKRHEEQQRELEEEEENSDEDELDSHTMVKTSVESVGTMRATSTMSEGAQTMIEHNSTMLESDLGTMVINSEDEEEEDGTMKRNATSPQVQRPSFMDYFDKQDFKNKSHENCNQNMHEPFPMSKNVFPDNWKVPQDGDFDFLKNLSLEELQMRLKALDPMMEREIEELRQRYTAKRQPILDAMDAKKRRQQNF

By UniProt entry, the sequences of proteins in these tests, tags left out. Residues count along the entry.
UniProt O14980: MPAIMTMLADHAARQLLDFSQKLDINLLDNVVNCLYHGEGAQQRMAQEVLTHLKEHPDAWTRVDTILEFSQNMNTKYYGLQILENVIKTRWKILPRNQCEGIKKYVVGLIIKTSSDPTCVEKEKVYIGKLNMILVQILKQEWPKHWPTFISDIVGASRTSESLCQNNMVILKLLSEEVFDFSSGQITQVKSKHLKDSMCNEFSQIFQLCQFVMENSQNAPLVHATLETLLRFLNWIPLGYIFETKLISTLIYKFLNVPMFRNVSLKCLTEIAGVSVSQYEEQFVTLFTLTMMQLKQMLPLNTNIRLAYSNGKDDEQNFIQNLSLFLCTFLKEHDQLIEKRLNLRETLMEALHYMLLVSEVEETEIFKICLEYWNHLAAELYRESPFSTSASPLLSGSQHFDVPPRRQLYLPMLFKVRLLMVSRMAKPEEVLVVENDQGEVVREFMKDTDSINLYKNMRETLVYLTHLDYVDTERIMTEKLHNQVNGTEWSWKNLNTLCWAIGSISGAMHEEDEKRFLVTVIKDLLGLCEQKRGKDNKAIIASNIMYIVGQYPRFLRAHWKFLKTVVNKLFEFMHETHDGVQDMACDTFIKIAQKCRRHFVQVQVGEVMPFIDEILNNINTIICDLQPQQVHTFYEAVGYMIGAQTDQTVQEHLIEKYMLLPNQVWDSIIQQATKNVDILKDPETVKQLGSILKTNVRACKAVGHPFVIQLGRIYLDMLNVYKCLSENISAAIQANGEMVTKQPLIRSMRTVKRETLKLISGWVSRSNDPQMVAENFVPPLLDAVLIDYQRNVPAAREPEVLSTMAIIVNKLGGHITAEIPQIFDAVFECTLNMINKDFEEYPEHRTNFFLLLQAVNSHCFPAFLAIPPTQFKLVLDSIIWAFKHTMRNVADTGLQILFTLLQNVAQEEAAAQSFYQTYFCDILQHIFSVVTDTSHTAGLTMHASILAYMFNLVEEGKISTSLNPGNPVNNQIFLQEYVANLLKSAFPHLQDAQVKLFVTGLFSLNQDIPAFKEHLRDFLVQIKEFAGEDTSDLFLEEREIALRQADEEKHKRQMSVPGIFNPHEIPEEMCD
UniProt P20700: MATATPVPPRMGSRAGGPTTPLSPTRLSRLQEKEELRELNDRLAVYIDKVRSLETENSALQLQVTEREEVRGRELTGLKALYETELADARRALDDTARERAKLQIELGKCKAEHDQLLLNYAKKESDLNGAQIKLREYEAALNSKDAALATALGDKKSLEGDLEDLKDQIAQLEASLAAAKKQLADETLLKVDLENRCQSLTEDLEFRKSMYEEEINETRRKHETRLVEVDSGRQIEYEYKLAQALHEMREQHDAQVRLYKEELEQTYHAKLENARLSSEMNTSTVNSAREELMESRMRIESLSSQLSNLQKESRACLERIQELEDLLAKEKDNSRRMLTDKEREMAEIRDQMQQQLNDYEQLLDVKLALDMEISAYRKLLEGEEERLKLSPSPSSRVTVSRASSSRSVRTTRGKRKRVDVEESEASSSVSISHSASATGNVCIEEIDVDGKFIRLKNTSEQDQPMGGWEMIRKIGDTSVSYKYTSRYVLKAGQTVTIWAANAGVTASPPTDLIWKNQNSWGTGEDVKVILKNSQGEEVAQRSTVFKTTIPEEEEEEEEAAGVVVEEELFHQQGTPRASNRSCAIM
UniProt P02545, residues 1-646: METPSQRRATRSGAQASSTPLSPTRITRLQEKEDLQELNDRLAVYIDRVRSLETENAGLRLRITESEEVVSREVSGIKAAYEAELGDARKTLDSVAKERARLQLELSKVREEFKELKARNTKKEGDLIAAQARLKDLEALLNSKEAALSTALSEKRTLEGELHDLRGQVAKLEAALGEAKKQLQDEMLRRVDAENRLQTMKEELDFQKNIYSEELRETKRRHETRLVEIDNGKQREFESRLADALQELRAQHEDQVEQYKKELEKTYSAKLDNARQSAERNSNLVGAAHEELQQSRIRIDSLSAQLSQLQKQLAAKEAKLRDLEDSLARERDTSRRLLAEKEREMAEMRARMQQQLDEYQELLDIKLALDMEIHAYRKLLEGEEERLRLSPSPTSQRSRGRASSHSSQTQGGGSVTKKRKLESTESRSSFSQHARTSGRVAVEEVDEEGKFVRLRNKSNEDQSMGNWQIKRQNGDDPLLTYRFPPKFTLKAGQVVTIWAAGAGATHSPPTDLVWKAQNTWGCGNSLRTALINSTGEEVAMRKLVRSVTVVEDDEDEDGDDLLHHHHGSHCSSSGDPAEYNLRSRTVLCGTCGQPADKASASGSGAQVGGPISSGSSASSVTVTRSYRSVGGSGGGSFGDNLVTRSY

[2] = target: T1, mammalian STE20-like protein kinase 2 (MST2) (human (endogenous in HeLa)); experiment: as above; remark: listed apart in the source
[3] = target: exportin-1 (CRM1/XPO1) (human (endogenous in HeLa)) (UniProt O14980); experiment: as above
[4] = target: T2, exportin-6 (XPO6) (human (endogenous in HeLa)) (UniProt Q96QU8); experiment: as above
T2 sequence: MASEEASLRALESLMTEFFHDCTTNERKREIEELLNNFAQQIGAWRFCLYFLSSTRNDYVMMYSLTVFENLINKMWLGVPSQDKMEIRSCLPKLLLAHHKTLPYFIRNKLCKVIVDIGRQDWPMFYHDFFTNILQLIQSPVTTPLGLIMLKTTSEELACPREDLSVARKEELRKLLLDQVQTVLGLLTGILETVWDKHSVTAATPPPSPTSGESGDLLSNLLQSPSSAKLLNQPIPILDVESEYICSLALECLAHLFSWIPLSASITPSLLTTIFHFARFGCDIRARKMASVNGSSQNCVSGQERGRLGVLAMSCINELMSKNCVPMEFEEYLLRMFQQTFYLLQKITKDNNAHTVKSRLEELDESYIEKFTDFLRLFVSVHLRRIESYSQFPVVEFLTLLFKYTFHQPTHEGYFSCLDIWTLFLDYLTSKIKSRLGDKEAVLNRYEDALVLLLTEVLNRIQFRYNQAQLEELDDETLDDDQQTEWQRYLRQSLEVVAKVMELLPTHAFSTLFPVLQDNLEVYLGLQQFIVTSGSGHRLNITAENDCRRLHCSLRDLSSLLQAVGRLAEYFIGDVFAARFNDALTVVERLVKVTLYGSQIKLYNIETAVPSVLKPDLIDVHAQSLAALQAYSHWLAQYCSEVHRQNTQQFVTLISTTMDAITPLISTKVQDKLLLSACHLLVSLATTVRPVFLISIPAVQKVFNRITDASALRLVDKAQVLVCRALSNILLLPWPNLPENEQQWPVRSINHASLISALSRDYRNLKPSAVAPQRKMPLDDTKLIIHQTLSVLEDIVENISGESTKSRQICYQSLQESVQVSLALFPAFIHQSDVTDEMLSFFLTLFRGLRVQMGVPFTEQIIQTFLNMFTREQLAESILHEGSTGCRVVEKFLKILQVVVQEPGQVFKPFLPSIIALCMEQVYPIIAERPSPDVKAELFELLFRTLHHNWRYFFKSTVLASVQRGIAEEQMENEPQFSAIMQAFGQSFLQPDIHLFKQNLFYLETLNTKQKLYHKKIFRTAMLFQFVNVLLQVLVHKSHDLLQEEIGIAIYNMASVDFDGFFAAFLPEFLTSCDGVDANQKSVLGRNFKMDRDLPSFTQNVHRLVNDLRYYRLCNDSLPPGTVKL

[5] = target: T3, RASSF1A (Ras association domain family 1 isoform A) (human (endogenous in HeLa)) (UniProt Q9NS23); experiment: as above
T3 sequence: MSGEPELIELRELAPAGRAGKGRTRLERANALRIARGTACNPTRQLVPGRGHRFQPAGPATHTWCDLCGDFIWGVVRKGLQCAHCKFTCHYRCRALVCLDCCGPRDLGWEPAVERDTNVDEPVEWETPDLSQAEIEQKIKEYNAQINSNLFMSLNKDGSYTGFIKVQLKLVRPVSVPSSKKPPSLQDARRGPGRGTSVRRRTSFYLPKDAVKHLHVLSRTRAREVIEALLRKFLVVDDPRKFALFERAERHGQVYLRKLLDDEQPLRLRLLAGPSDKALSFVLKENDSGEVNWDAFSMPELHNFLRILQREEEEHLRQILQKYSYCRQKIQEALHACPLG

MYC-RASSF1A (aa 120-340) = target: T4, MYC-RASSF1A (aa 120-340) (UniProt Q9NS23); experiment: co-IP; MYC immunoprecipitation from HeLa cells expressing MYC-RASSF1A or its truncations, immunoblot for endogenous XPO6
T4 sequence: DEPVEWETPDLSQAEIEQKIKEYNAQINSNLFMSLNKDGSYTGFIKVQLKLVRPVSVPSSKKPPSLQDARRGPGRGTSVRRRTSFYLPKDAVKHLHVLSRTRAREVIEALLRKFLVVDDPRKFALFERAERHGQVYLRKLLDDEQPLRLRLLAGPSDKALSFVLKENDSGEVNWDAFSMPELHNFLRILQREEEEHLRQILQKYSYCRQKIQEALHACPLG

MYC-RASSF1A (aa 1-288) = target: T5, MYC-RASSF1A (aa 1-288) (UniProt Q9NS23); experiment: as above
T5 sequence: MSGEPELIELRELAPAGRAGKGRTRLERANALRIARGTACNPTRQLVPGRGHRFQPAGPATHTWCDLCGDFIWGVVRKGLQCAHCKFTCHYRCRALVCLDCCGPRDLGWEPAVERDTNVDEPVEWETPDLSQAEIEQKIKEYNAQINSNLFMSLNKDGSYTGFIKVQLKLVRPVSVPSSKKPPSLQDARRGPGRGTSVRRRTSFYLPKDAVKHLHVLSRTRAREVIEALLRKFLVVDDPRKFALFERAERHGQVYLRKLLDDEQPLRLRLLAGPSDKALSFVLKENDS

MYC-RASSF1A (aa 120-288) = target: T6, MYC-RASSF1A (aa 120-288) (UniProt Q9NS23); experiment: as above
T6 sequence: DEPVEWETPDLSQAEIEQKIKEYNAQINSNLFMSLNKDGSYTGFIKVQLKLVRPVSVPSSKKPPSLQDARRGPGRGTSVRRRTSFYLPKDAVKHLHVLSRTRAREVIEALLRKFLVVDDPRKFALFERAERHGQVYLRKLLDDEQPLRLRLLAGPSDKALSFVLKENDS

[6] = target: T7, full-length MYC-RASSF1A (aa 1-340) (UniProt Q9NS23); experiment: as above
T7 sequence: T3 sequence

In the case of Lamin B1 (from UniProt P20700 1-586), the binding [1] is reported as “binds”.

In the case of Lamin A/C (from UniProt P02545 1-646), the binding [1] is reported as “binds”.

B1: RASSF1A (Ras association domain family 1 isoform A) (protein, UniProt Q9NS23-2 1-340)
chain: T3 sequence
B1 was tested, and the binding [2] was “binds”, the binding [3] was “no binding” and the binding [4] was “binds”.

B2: exportin-6 (XPO6) (protein, UniProt Q96QU8 1-1125)
chain: T2 sequence
B2 was tested, and the binding [5] was “binds”, the binding (MYC-RASSF1A (aa 120-340)) was “binds” and the binding (MYC-RASSF1A (aa 1-288)) was “no binding”. The binding (MYC-RASSF1A (aa 120-288)) was “no binding” and the binding [6] was “binds”.

Source: PMC6694222
